In PMC4336329 (PLoS ONE, 2015):
Among all 310,000 compounds or so, about 14,000 (4.5%) showed an effect of 50% or more. Effects have a minus sign here. This is one part of the list.

What follows are compounds tested against human ether-à-go-go-related gene (hERG) potassium channel (human, UniProt Q12809) (assay: primary screen, population patch clamp on CHO cells stably expressing hERG).
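Further: peak tail current of the secondary pulse compared with the same well before compound.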

Sequence of human ether-à-go-go-related gene (hERG) potassium channel (Q12809 whole entry, looked up): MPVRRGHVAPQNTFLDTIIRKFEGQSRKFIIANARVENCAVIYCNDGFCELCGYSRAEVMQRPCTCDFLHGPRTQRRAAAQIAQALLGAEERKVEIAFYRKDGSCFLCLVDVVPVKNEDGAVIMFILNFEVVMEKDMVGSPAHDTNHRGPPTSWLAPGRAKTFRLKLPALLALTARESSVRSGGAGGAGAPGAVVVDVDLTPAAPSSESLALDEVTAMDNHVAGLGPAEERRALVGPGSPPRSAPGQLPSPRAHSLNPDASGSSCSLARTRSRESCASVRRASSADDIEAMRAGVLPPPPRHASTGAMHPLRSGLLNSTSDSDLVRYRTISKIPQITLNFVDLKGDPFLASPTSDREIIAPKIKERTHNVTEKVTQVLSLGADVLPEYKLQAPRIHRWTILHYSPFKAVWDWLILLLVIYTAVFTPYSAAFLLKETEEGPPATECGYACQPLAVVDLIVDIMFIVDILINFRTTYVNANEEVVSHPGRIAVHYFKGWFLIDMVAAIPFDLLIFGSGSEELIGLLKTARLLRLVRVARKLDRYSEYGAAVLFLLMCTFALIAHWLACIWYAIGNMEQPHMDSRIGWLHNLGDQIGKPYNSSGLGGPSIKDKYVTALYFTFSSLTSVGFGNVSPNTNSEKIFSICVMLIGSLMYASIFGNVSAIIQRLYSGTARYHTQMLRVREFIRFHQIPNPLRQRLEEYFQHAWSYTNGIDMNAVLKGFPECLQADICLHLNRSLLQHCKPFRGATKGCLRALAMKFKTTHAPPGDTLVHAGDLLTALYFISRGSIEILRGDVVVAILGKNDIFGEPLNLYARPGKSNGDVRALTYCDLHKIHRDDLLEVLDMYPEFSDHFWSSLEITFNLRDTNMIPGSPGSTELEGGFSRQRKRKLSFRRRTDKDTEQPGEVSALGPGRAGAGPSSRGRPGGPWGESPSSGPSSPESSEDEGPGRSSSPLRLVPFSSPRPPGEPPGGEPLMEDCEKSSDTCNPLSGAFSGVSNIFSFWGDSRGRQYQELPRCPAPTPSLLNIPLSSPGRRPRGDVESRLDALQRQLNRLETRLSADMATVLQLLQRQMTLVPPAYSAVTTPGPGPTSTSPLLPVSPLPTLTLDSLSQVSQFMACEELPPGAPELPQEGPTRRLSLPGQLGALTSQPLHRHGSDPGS

SMILES | hERG current change (%, negative = inhibition) at 10uM
Cc1cc(NC(=O)COC(=O)C2CC(=O)N(c3cccc(C)c3C)C2)no1 (stereo not drawn) | 5.71%
CCOc1ccc2[nH]c(SCC(=O)OC)c([N+](=O)[O-])c2c1 | 5.34%
COC(=O)NNC(=O)C1CCC(C)CC1 (stereo not drawn) | -27.2%
CCOc1cc(/C=N\NC(=O)CN2CCOCC2)ccc1OCc1ccc(F)cc1 | -18.2%
Cc1ccc(C2CN(C)C3(C(=O)Nc4ccccc43)C23COc2ccccc2C3=O)cc1 (stereo not drawn) | 1.58%
CCNc1nc(NCC)n2c(SCc3ccc(F)cc3)nnc2n1 | -20.1%
O=C(Nc1ccc2c(c1)nc1n2CCN(Cc2ccccc2)C1)NC1CCCCC1 | -9.72%
COCCn1c(-c2ccc(NC(C)=O)cc2)nc2c1c(=O)[nH]c(=O)n2CC(C)C | 13.1%
CCCCNC(=O)c1c(N)n(CCCOC)c2nc3ccccc3nc12 | -9.6%
CCC(=O)Nc1ccc2c(c1)nc1n2CCN(CCOC)C1 | 9.21%
O=C(Cc1ccc(Br)cc1)N1CCN(C(=O)c2ccccc2)CC1 | -30.1%
CCOC(=O)c1ccc(NC(=O)Cn2ccc([N+](=O)[O-])n2)cc1 | -46.4%
COCC(=O)Nc1ncc(S(=O)(=O)c2ccc([N+](=O)[O-])cc2)s1 | -12.8%
O=[N+]([O-])c1ccc(Cl)cc1CN1CCCCCC1 | -3.36%
N#Cc1ccc(CN2CCN(C(=O)CCNS(=O)(=O)c3ccc(F)c(F)c3)CC2)cc1 | -49.5%
O=C(O)c1ccc(N/N=C/C2=C(N3CCOCC3)C(=C\c3ccccc3)/CC2)cc1 | 7.96%
Cn1c(CNC(=O)CNS(=O)(=O)c2ccc(F)cc2F)cc(=O)n(C)c1=O | 19.6%
Cc1ccc(-c2nc(C3CCN(S(=O)(=O)c4ccc(C(C)(C)C)cc4)CC3)no2)cc1 | 17.4%
COc1ccc(NC(=O)C2CCCN(c3nn4c(=O)cc(C)nc4s3)C2)c(OC)c1 (stereo not drawn) | 9.44%
CCOc1cccc(-c2nnc3n2N=C(c2cc(OC)ccc2OC)CS3)c1 | -5.56%
CCC(=O)Oc1ccc2c(C)cc(=O)oc2c1C | 0.0333%

SMILES | hERG current change (%, negative = inhibition) at 10uM
Cn1c(=O)c2c(nc(NCCOc3ccc(F)cc3)n2C)n(C)c1=O | -26%
CN1CCN(C(=O)c2cn(-c3ccccc3)nc2-c2cccs2)CC1 | -12.2%
O=S(=O)([O-])c1cc(OS(=O)(=O)c2ccccc2)cc2ccccc12.[Na+] | 18.8%
Cc1cccc(NC(=O)CSc2nnc(C3CC3)n2CC2CCCO2)c1 (stereo not drawn) | -14.9%
N#Cc1c(NC(=O)CSc2nc3c(c(C(F)(F)F)n2)CCc2ccccc2-3)sc2c1CCCC2 | 3.05%
CCOC(=O)N1CCC(NCCNC(=O)c2ccco2)CC1.O=C(O)C(=O)O | 15.5%
COc1cc(NC(=O)Nc2ccccc2OC)c(OC)cc1NC(=O)CN1CCCCC1 | 1.04%
CCn1ccnc1CN(C)Cc1nc(-c2ccc(C(=O)OC)cc2)no1 | -17.5%
Cc1cc2c(cc1S(=O)(=O)Nc1cccc(F)c1C)NC(=O)CO2 | 4.24%
O=C1/C(=C/c2cccnc2)SC(=S)N1c1ccccc1 | 13%
COc1ccccc1NC(=S)N(CCN1CCOCC1)Cc1ccccc1F | 3.98%
COc1ccc(C(C(=O)NC2CCCC2)N(C(=O)c2ccoc2C)c2ccc(C)cc2)cc1 (stereo not drawn) | -11.4%
Cc1cc(Cl)ccc1OCC(=O)NNC(=O)c1cccnc1 | 3.32%
O=Cc1ccc(N2CCCC2)o1 | 9.3%
COc1cccc(NC(=O)Cn2cnc3sc(C)c(S(=O)(=O)N4CCCCC4)c3c2=O)c1 | 6.59%
Cc1nc2cc(-c3ccccc3)nn2c(C)c1CCC(=O)N1CCN(c2ccccc2)CC1 | -65.7%
O=C(NNS(=O)(=O)c1ccc(Cl)cc1)c1ccc(S(=O)(=O)N2CCCCC2)cc1 | 13.8%
COc1ccc(N=Cc2c(O)n(C)c(=O)[nH]c2=O)cc1 | 16.5%
COc1ccc(N2CC(C(=O)NCCS(=O)(=O)N3CCN(c4ccccc4)CC3)CC2=O)cc1 (stereo not drawn) | 15.6%
CCc1ccc2oc(-c3cccc(NC(=O)c4cccnc4)c3)nc2c1 | 4.45%
CC(C)(C)NC(=O)N1CCCC(C(=O)c2cccc(Cl)c2)C1 (stereo not drawn) | 1.94%

SMILES | hERG current change (%, negative = inhibition) at 10uM
CC1=NN(C(=O)Cc2ccccc2)C(O)(c2cccnc2)C1 (stereo not drawn) | -5.05%
O=C(Cc1ccc(Br)cc1)Nc1nc2ccccc2[nH]1 | 21.6%
C[N+]12CCC(CC1)C(C#N)(N1CCOCC1)C2.[I-] (stereo not drawn) | 17%
COc1ccccc1CNC(=O)COC(=O)/C=C/c1cccs1 | 13.4%
COc1cc(-c2nnc(CSc3nnc(Nc4ccc(Oc5ccccc5)cc4)s3)o2)cc(OC)c1OC | -1.89%
Cc1nn(Cc2ccccc2)c(Cl)c1C(=O)OC(C)C#N (stereo not drawn) | -3.27%
O=C(NCCc1ccco1)C(=O)NCC1OCCCN1S(=O)(=O)c1ccc(F)cc1 (stereo not drawn) | -2.11%
CCOc1cc(/C=N/NC(=O)C(C)Sc2ccccn2)ccc1O (stereo not drawn) | -1.63%
CCCCCSc1nnc2c(n1)OC(c1cccn1C)N(C(C)=O)c1ccccc1-2 (stereo not drawn) | -9.38%
NS(=O)(=O)c1ccc(NC(=O)c2cc(-c3cccs3)nc3ccccc23)cc1 | -2.93%
Cc1ccc(SCCC(=O)OC(C)C(=O)Nc2ccccc2)cc1 (stereo not drawn) | -13.8%
Cc1noc(C)c1CSCC(=O)N(CC(C)C)c1c(N)n(Cc2ccccc2)c(=O)[nH]c1=O | -3.26%
Cn1nnc2c(sc3nc(N4CCOCC4)c4c(c32)CCCC4)c1=O | -2.99%
CC(=O)Nc1c(F)cc(Br)cc1F | 21.6%
N#Cc1cccnc1N1CCN(C(=O)c2ccc3c(c2)S(=O)(=O)c2ccccc2C3=O)CC1 | -22.7%
CC(C)C[C@H](N)c1nnc(SCC(=O)Nc2ccc(Br)cc2)o1 | -4.09%
Cn1c(O)c(C(c2ccccn2)c2c(O)n(C)c(=S)[nH]c2=O)c(=O)[nH]c1=S | -3.28%
O=C1c2ccccc2NC(c2cccc([N+](=O)[O-])c2)N1O (stereo not drawn) | 4.72%
O=C1CC(N2CCC(c3nc4ccccc4o3)CC2)C(=O)N1Cc1cccs1 (stereo not drawn) | -30.9%
O=Cc1cn(CC(=O)N2CCOCC2)c2ccccc12 | -1.04%
O=C(COC(=O)c1ccc(NS(=O)(=O)c2ccc(Br)s2)cc1)NC1CCCC1 | -4.82%

SMILES | hERG current change (%, negative = inhibition) at 10uM
COc1ccc(CCNC(=O)CN2C(=O)NC(CCSC)C2=O)cc1 (stereo not drawn) | 14%
CN(c1ccc(C(=O)Nc2ccc(F)cc2F)cc1)S(=O)(=O)c1ccccc1 | -13.9%
COC(=O)CCC(=O)NC1CC(C)(C)Cc2c1cnn2-c1ccccc1 (stereo not drawn) | -12%
CN=C1SC(CC(=O)Nc2sc(C)c(C)c2C(=O)OC)C(=O)N1C (stereo not drawn) | -8.67%
CN(C)c1cc(-c2ccc(Cl)c(Cl)c2)oc(=O)c1Cl | 12.7%
COc1cccc(/C=C2\SC(=S)N(CC(=O)N(C)C3CCS(=O)(=O)C3)C2=O)c1 (stereo not drawn) | 1.18%
COC(=O)c1c(NC(=O)c2ccccc2OC)sc(C(=O)N2CCOCC2)c1C | -10.2%
CCN(CC)S(=O)(=O)c1cc(C(=O)OCC(=O)Nc2cccc(S(=O)(=O)N(C)C)c2)ccc1F | 6.73%
O=C(Nc1ccc2c(c1)OCCO2)C1CCN(C(=O)c2ccc(Br)cc2)CC1 | -52.7%
CC1CCCCN1S(=O)(=O)c1ccc(C(=O)Nc2ccccc2-c2nc3ccccc3[nH]2)cc1 (stereo not drawn) | 15.9%
CN1C(=O)c2ccc(S(=O)(=O)c3ccc(C(=O)O)cc3)cc2C1=O | 3.09%
CN1C(=O)[C@@H]2C[C@@]3([C@@]45C[C@H]6C(=O)N(C)[C@@H](Cc7ccccc7)C(=O)N6[C@@H]4Nc4ccccc45)c4ccccc4N[C@H]3N2C(=O)[C@@H]1Cc1ccccc1 | -41.6%
CC1(C)Cc2c(sc3c2c(=O)n(-c2ccc(Cl)cc2)c(=O)n3CC(N)=O)CO1 | -5.38%
CCOC(=O)N1CCC(=NNc2ncc(C(F)(F)F)cc2Cl)CC1 | 8.95%
c1ccc(NCc2cccnc2)cc1 | 12.1%
CN(C)c1ccc(/C=C/C=N/Nc2nc(N3CCOCC3)nc(N3CCOCC3)n2)cc1 | 0.992%
O=C(Nc1ccccc1)C1=C[C@H](C2CCCCC2)C[C@H](OCCCCO)O1 | -16.9%
CC(NC(=O)CSc1nc2sc3c(c2c(=O)n1-c1ccccc1)CCCC3)c1ccccc1 (stereo not drawn) | 7.87%
Cc1nn(-c2ccccc2)c(C)c1C(=O)OC(C)C(=O)NC1CCCCC1C (stereo not drawn) | -18%
CC1CN(C(=O)Cn2c(C(F)(F)F)nc3ccccc32)CC(C)O1 (stereo not drawn) | 17.2%
COCC(C)NCc1cccc2ccccc12.O=C(O)C(=O)O (stereo not drawn) | -0.173%
